Assays:
[1] = target: T1, Factor IXa (activated factor IX), plasma protein (UniProt P00740 47-191; P00740 fragment); assay: enzyme inhibition kinetics
[2] = target: T1, Factor IXa (activated factor IX), …; assay: enzyme inhibition kinetics; remark: listed apart in the source

k2 with pentasaccharide H5 [1]: 40 M⁻¹ s⁻¹ | k2 with heparin [2]: 3000 M⁻¹ s⁻¹
B1: AT-R393Y (antithrombin with the P1 Arg-393 replaced by the P1 Tyr of ZPI) (natural protein)
chain: not shown
